Source: article PMC4634149
No constants are given. Whether binding was seen depends on the method and setting. Some binding calls cover weakened binding; strength is not graded here.

T1: C-terminal portion of AIP1 containing the DUF724 domain (Arabidopsis thaliana) (UniProt Q8H0V4)
T1 sequence: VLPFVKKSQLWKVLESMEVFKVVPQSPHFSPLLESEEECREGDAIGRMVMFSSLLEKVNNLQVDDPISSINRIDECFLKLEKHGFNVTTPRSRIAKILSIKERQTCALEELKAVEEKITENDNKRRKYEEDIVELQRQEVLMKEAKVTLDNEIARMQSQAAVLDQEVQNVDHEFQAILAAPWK

B1: Armadillo BTB Arabidopsis Protein 1 (ABAP1), full-length CDS (protein, UniProt B7U179 1-737)
chain: MIISKSFKAPLKFSVKSSTAPVISNHPPMENHPKRQRTTRLAARNLKRKLSHNTDGAPIVTQLIDIDDEPIDLVVAIRRHVEVLNSSFSDPDFDHEAVKEAAADIADLAKIDENVEIIVENGAIPALVRYLESPLVVCGNVPKSCEHKLEKDCALALGLIAAIQPGYQQLIVDAGAIVPTVKLLKRRGECGECMFANAVIRRAADIITNIAHDNPRIKTNIRVEGGIAPLVELLNFPDVKVQRAAAGALRTVSFRNDENKSQIVELNALPTLVLMLQSQDSTVHGEAIGAIGNLVHSSPDIKKEVIRAGALQPVIGLLSSTCLETQREAALLIGQFAAPDSDCKVHIAQRGAITPLIKMLESSDEQVVEMSAFALGRLAQDAHNQAGIAHRGGIISLLNLLDVKTGSVQHNAAFALYGLADNEENVADFIKAGGIQKLQDDNFTVQPTRDCVVRTLKRLQNKIHGPVLNQLLYLMRTAEKTVQIRIALALAHLCDPKDGKLIFIDNNGVEFLLELLYFSSNKQQRYSSSALYELAKKATSFAPEDSAPCSPTQQVFLGEKFVNNPTMSDVTFLIDGKQFYAHKIGLVASSDIFRAMFDGLYKERNAQNVEIPNIRWEVFELMMKFIYSGRINIAKHLAKDLLVAADQYLLEGLKRQCEYTIAQEICLDNIPEMYELADTFNASALRRACTLFVLEHFTKLSSQLWFAKFVKQIIPEIRSYMTDILTRPVEASPPTVV
B2: N-terminal region of ABAP1 including the armadillo domains (aa 1-400) (domain or fragment, UniProt B7U179 1-400)
chain: MIISKSFKAPLKFSVKSSTAPVISNHPPMENHPKRQRTTRLAARNLKRKLSHNTDGAPIVTQLIDIDDEPIDLVVAIRRHVEVLNSSFSDPDFDHEAVKEAAADIADLAKIDENVEIIVENGAIPALVRYLESPLVVCGNVPKSCEHKLEKDCALALGLIAAIQPGYQQLIVDAGAIVPTVKLLKRRGECGECMFANAVIRRAADIITNIAHDNPRIKTNIRVEGGIAPLVELLNFPDVKVQRAAAGALRTVSFRNDENKSQIVELNALPTLVLMLQSQDSTVHGEAIGAIGNLVHSSPDIKKEVIRAGALQPVIGLLSSTCLETQREAALLIGQFAAPDSDCKVHIAQRGAITPLIKMLESSDEQVVEMSAFALGRLAQDAHNQAGIAHRGGIISLLNL
B3: ARIA, full-length CDS (protein, UniProt B9DHT4 1-710)
chain: MDQQPERREGRSFPERKGQKRKLEEGAAAVEDREISAVSTDGGQALLSEVAAQVSVLNSAFSWQESDRAAAKRATQVLAELAKNEDLVNVIVDGGAVPALMTHLQAPPYNDGDLAEKPYEHEVEKGSAFALGLLAIKPEYQKLIVDKGALPHLVNLLKRNKDGSSSRAVNSVIRRAADAITNLAHENSSIKTRVRVEGGIPPLVELLEFSDSKVQRAAAGALRTLAFKNDDNKNQIVECNALPTLILMLGSEDAAIHYEAVGVIGNLVHSSPHIKKEVLTAGALQPVIGLLSSCCPESQREAALLLGQFASTDSDCKVHIVQRGAVRPLIEMLQSPDVQLKEMSAFALGRLAQDAHNQAGIAHSGGLGPLLKLLDSRNGSLQHNAAFALYGLADNEDNVSDFIRVGGIQKLQDGEFIVQATKDCVSKTLKRLEEKIHGRVLRHLLYLMRISEKSIQRRVALALAHLCSPEDQRTIFIDDNGLELLLGLLGSLNTKQQLDGAAALYKLANKSMALSPVDAAPPSPTQRVYLGEQYVNNATLSDVTFLVEGRTFYAHRICLLASSDAFRAMFDGGYREKDARDIEIPNIKWEVFELMMRFIYTGSVDITNEISKDLLRAADQYLLEGLKRLCEYTIAQDITLESIGDMYELSEAFHAMSLRQACIMFILEHFDKLSSMPWQNELVQRTIPEIREYFCRALTKSTTNLQSLRL
B4: LHP1, full-length CDS (protein, UniProt Q946J8 1-445)
chain: MKGASGAVKKKPQVLNEAGEAETAVETVGESRKISGDGGFGSDDGGGGGGGGSGESILREIGDDRPTEDGDEEEEEDEDEDDGGDEEDEEGEGEGGQEERPKLDEGFYEIEAIRRKRVRKGKVQYLIKWRGWPETANTWEPLENLQSIADVIDAFEGSLKPGKPGRKRKRKYAGPHSQMKKKQRLTSTSHDATEKSDSSTSLNNSSLPDIPDPLDLSGSSLLNRDVEAKNAYVSNQVEANSGSVGMARQVRLIDNEKEYDPTLNELRGPVNNSNGAGCSQGGGIGSEGDNVRPNGLLKVYPKELDKNSRFIGAKRRKSGSVKRFKQDGSTSNNHTAPTDQNLTPDLTTLDSFGRIARMGNEYPGVMENCNLSQKTKIEELDITKILKPMSFTASVSDNVQEVLVTFLALRSDGKEALVDNRFLKAHNPHLLIEFYEQHLKYNRTP
B5: C-terminal region of ABAP1 containing the BTB-POZ domain (aa 401-737) (domain or fragment, UniProt B7U179 401-737)
chain: LDVKTGSVQHNAAFALYGLADNEENVADFIKAGGIQKLQDDNFTVQPTRDCVVRTLKRLQNKIHGPVLNQLLYLMRTAEKTVQIRIALALAHLCDPKDGKLIFIDNNGVEFLLELLYFSSNKQQRYSSSALYELAKKATSFAPEDSAPCSPTQQVFLGEKFVNNPTMSDVTFLIDGKQFYAHKIGLVASSDIFRAMFDGLYKERNAQNVEIPNIRWEVFELMMKFIYSGRINIAKHLAKDLLVAADQYLLEGLKRQCEYTIAQEICLDNIPEMYELADTFNASALRRACTLFVLEHFTKLSSQLWFAKFVKQIIPEIRSYMTDILTRPVEASPPTVV
B6: MCM2 (protein, UniProt Q9LPD9 1-936)
chain: MAGENSDNEPSSPASPSSAGFNTDQLPISTSQNSENFSDEEEAAVDTQVIRDEPDEAEDEEEEEGEDLFNDTFMNDYRKMDENDQYESNGIDDSVDDERDLGQAMLDRRAADADLDARENRLANRKLPHLLHDNDSDDWNYRPSKRSRTTVPPRGNGGDPDGNPPSSPGVSQPDISMTDQTDDYQDEDDNDDEAEFEMYRIQGTLREWVMRDEVRRFIAKKFKDFLLTYVKPKNENGDIEYVRLINEMVSANKCSLEIDYKEFIHVHPNIAIWLADAPQPVLEVMEEVSEKVIFDLHPNYKNIHTKIYVRVTNLPVNDQIRNIRQIHLNTMIRIGGVVTRRSGVFPQLQQVKYDCNKCGAVLGPFFQNSYSEVKVGSCSECQSKGPFTVNVEQTIYRNYQKLTIQESPGTVPAGRLPRHKEVILLNDLIDCARPGEEIEVTGIYTNNFDLSLNTKNGFPVFATVVEANYVTKKQDLFSAYKLTQEDKTQIEELSKDPRIVERIIKSIAPSIYGHEDIKTALALAMFGGQEKNIKGKHRLRGDINVLLLGDPGTAKSQFLKYVEKTGQRAVYTTGKGASAVGLTAAVHKDPVTREWTLEGGALVLADRGICLIDEFDKMNDQDRVSIHEAMEQQSISISKAGIVTSLQARCSVIAAANPVGGRYDSSKSFAQNVELTDPILSRFDILCVVKDVVDPVTDEMLAEFVVNSHFKSQPKGGKMEDSDPEDGIQGSSGSTDPEVLPQNLLKKYLTYSKLYVFPKLGELDAKKLETVYANLRRESMNGQGVSIATRHLESMIRMSEAHARMHLRQYVTEEDVNMAIRVLLDSFISTQKFGVQRTLRESFKRYITYKKDFNSLLLVLLKELVKNALKFEEIISGSNSGLPTIEVKIEELQTKAKEYDIADLRPFFSSTDFSKAHFELDHGRGMIKCPKRLITW
B7: MCM3 (protein, UniProt Q9FL33 1-776)
chain: MDVPEETRLRHKRDFIQFLDSMYMEEIKALVHQKRHRLIINISDIHHHFREVASRILKNPNEYMQSFCDAATEATRAIDPKYLKEGELVLVGFEGYFVSRVVTPRELLSDFIGSMVCVEGIVTKCSLVRPKVVKSVHFCPSTGEFTNRDYRDITSHAGLPTGSVYPTRDDKGNLLVTEYGLCKYKDHQTLSIQEVPENAAPGQLPRSVDVIAEDDLVDSCKPGDRVSVFGIYKALPGKSKGSVNGVFRTILIANNIALLNKEANAPIYTKQDLDNIKNIARRDDAFDLLARSLAPSIYGHAWIKKAVVLLMLGGVEKNLKNGTHLRGDINMMMVGDPSVAKSQLLRAIMNIAPLAISTTGRGSSGVGLTAAVTSDQETGERRLEAGAMVLADKGIVCIDEFDKMNDQDRVAIHEVMEQQTVTIAKAGIHASLNARCSVVAAANPIYGTYDRSLTPTKNIGLPDSLLSRFDLLFIVLDQMDAGIDSMISEHVLRMHRYKNDRGEAGPDGSLPYAREDNAESEMFVKYNQTLHGKKKRGQTHDKTLTIKFLKKYIHYAKHRITPKLTDEASERIAEAYADLRNAGSDTKTGGTLPITARTLETIIRLATAHAKMKLSSEVTKADAEAALKLMNFAIYHQELTEMDDREQEERQREQAEQERTPSGRRGNQRRNNEDGAENDTANVDSETADPMEVDEPSVEQFSGTVSAARIETFERVFGQHMRTHRLDDISIADIETVVNNNGVGASRYSADEIMALLEKLQDDNKVMISDGKVHII
B8: MCM7 (protein, UniProt P43299 1-716)
chain: MKDHDFDGDKGLAKGFLENFADANGRSKYMEILQEVSNRKIRAIQVDLDDLFNYKDESEEFLGRLTENTRRYVSIFSAAVDELLPEPTEAFPDDDHDILMTQRADDGTDNPDVSDPHQQIPSEIKRYYEVYFKAPSKGRPSTIREVKASHIGQLVRISGIVTRCSDVKPLMAVAVYTCEDCGHEIYQEVTSRVFMPLFKCPSSRCRLNSKAGNPILQLRASKFLKFQEAKMQELAEHVPKGHIPRSMTVHLRGELTRKVSPGDVVEFSGIFLPIPYTGFKALRAGLVADTYLEATSVTHFKKKYEEYEFQKDEEEQIARLAEDGDIYNKLSRSLAPEIYGHEDIKKALLLLLVGAPHRQLKDGMKIRGDVHICLMGDPGVAKSQLLKHIINVAPRGVYTTGKGSSGVGLTAAVMRDQVTNEMVLEGGALVLADMGICAIDEFDKMDESDRTAIHEVMEQQTVSIAKAGITTSLNARTAVLAAANPAWGRYDLRRTPAENINLPPALLSRFDLLWLILDRADMDSDLELAKHVLHVHQTEESPALGFEPLEPNILRAYISAARRLSPYVPAELEEYIATAYSSIRQEEAKSNTPHSYTTVRTLLSILRISAALARLRFSESVAQSDVDEALRLMQMSKISLYADDRQKAGLDAISDTYSIIRDEAARSKKTHVSYANALNWISRKGYSEAQLKECLEEYAALNVWQIDPHTFDIRFI
B9: TCP24 (protein, UniProt Q9C758 1-324)
chain: MEVDEDIELQKHQEQQSRKLQRFSEDNTGLMRNWNNPSSRIIRVSRASGGKDRHSKVLTSKGLRDRRIRLSVATAIQFYDLQDRLGFDQPSKAVEWLINAASDSITDLPLLNTNFDHLDQNQNQTKSACSSGTSESSLLSLSRTEIRGKARERARERTAKDRDKDLQNAHSSFTQLLTGGFDQQPSNRNWTGGSDCFNPVQLQIPNSSSQEPMNHPFSFVPDYNFGISSSSSAINGGYSSRGTLQSNSQSLFLNNNNNITQRSSISSSSSSSSPMDSQSISFFMATPPPLDHHNHQLPETFDGRLYLYYGEGNRSSDDKAKERR

Target: T1, C-terminal portion of AIP1 containing the DUF724 domain (Arabidopsis thaliana)
Test: two-hybrid; S. cerevisiae PJ694 co-transformed; selection on -leu/-trp/-his or -leu/-trp/-his/-ade, 3 days at 30 °C; C-terminal portion of AIP1 (DUF724) fused with GAL4 AD against GAL4 DBD fusions (Additional File 4); Additional File 10 calls the AIP1 portion the bait

| Binder | binding |
| --- | --- |
| B1 | binds |
| B2 | binds |
| B3 | binds |
| B4 | binds weakly |
| B5 | no binding |
| B6 | no binding |
| B7 | no binding |
| B8 | no binding |
| B9 | no binding |
